The whole screen tested about 310,000 compounds, of which about 14,000 (4.5%) showed an effect of 50% or more. The effect is printed as a negative number. The list shows a part of the results.
Target: human ether-à-go-go-related gene (hERG) potassium channel (human, UniProt Q12809)
Assay: primary screen, population patch clamp on CHO cells stably expressing hERG
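Note: peak tail current of the secondary pulse compared with the same well before compound.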

Sequence of human ether-à-go-go-related gene (hERG) potassium channel (Q12809 whole entry, looked up): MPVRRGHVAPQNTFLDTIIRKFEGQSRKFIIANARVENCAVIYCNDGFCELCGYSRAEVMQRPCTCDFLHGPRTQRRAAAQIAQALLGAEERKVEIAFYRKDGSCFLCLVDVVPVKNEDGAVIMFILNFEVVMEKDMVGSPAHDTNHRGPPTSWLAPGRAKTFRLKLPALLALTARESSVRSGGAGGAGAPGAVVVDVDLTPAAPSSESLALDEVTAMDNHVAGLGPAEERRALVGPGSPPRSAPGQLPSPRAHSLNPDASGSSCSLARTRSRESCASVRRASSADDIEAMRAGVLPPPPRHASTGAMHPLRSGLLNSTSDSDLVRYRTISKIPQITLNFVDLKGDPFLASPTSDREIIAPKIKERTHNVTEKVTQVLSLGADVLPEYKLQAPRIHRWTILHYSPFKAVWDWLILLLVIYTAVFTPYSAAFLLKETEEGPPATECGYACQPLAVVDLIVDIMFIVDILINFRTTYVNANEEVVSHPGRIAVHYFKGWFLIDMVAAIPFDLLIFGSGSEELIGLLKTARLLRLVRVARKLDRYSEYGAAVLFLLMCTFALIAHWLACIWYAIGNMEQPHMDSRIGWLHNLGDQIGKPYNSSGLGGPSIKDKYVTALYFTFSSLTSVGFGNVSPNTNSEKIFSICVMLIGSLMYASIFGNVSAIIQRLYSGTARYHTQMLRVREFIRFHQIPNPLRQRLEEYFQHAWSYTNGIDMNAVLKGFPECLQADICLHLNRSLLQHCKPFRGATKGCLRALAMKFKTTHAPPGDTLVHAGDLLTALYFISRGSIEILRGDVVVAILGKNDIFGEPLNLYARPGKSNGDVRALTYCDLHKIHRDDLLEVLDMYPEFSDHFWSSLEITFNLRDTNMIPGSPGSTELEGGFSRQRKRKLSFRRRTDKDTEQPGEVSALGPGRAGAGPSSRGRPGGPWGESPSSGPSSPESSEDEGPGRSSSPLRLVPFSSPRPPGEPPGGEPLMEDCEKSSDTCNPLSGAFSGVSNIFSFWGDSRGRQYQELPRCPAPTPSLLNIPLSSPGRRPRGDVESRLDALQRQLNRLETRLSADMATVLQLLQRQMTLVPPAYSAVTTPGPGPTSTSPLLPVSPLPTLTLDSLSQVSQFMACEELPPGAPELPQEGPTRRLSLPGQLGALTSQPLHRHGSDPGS

SMILES	hERG current change (%, negative = inhibition) at 10uM [%]
CSc1nc2ccsc2c(=O)n1-c1ccccc1	-3.55
CN(C)C(CNC(=O)CCCN1C(=O)c2cccc3cccc(c23)C1=O)c1ccccc1 (centres unmarked)	-46.2
CCCCC(=O)Nc1cc([N+](=O)[O-])ccc1Cl	10.6
Cc1ccccc1-c1cc(C(=O)N/N=C/c2cccnc2)c2ccccc2n1	-3.87
CC1(C)Cc2c(sc3ncnc(N)c23)CO1	-3.03
COc1ccc(C2=Nn3c(nnc3C(F)(F)F)SC2)cc1	7.16
C/C(=N\Nc1ccc(S(N)(=O)=O)cc1[N+](=O)[O-])c1cccnc1	20.1
CCCCn1c(N)c(N(CC)C(=O)C2CCC2)c(=O)[nH]c1=O	7.9
COc1ccc(OC)c(/C=N/NC(=O)CCCC(=O)Nc2cccc(Br)c2)c1	12
CC1=C(C(=O)OCC2CCCO2)C(c2ccc(F)cc2)NC(=O)N1 (centres unmarked)	21.5
COc1ccc(OC)c(NC(=O)CCn2ccnc2)c1	18.3
COc1ccc(N(C(=O)c2ccc(F)cc2)C2=CC3CCC(C2)N3C)cc1.Cl (centres unmarked)	-71.5
CC(C)(C)NC(=O)CSc1nnc(-c2ccccn2)n1Cc1ccccc1	-7.05
COc1ccc(OC)c(C2CC(=O)C3=C(C2)NC(=O)CC3c2ccc(O)c(OC)c2)c1 (centres unmarked)	-5.31
COc1cc(/C(C)=C/c2ccccc2)c2c(c1)oc1ccccc12	10.3
COCCOc1ccc(C(F)(F)F)cc1NC(=O)COC(=O)C12CC3CC(CC(O)(C3)C1)C2	-42.3
O=C(c1ccccc1)C1CCN(c2ncccc2[N+](=O)[O-])CC1	-15.8
CCOC(=O)c1sc(N2C(=O)C(O)=C(C(=O)c3ccco3)C2c2cccc(Cl)c2)nc1C (centres unmarked)	6.49
CC(CCc1ccco1)NC(=O)Nc1cccc(F)c1 (centres unmarked)	-42.4
CCOC(=O)C1CCN(C(C)C(=O)c2c(C)[nH]c3cc(C)ccc23)CC1 (centres unmarked)	-76.7
COc1ccc2[nH]c3nc(SCc4nnc(-c5ccc(C)cc5)o4)nnc3c2c1	1.13
O=C(c1n[nH]c2c1CCCC2)n1ccnc1	11.9
COc1ccc(S(=O)(=O)N2CCc3cc(OC)c(OC)cc3C2)cc1	-13

SMILES	hERG current change (%, negative = inhibition) at 10uM [%]
CC(C)NS(=O)(=O)c1ccc(NC(=O)C(C)Oc2ccc(C(=O)c3ccccc3)cc2)cc1 (centres unmarked)	-14.8
COCCN(C(=O)c1cc(Cl)ccn1)c1c(N)n(Cc2ccccc2)c(=O)[nH]c1=O	7.36
Cl.OC(CNC1CCCC1)COCCOc1ccc(Br)cc1 (centres unmarked)	-27.4
O=C(NCc1ccc(Cl)cc1)c1noc2c1CCCC2	-25.6
CCCCN1C(=O)N(C)C2NC(=O)NC21 (centres unmarked)	4.9
CC(C)OCCCNC(=O)C(=O)NCCCOC(C)C	4.08
COc1ccc(CCNc2oc(COc3ccccc3)nc2C#N)cc1	-7.91
COc1cccc(-c2cnc(NCc3cc(Cl)ccc3O)n2C)c1.O=C(O)C(=O)O	-24.1
COc1cc(C)c(Cl)cc1S(=O)(=O)n1ccnc1C	6.99
COc1cc2c(C)nc(C)c(C#N)c2cc1OC.Cl	-5.92
CC(=O)NC1(C(F)(F)F)N=C2SCCN2C1=O (centres unmarked)	7.4
O=C(NCC1CCCO1)C1CCCN1C(=O)Nc1ccc(Cl)cc1 (centres unmarked)	41.4
CCC(NC(=O)c1ccccc1NC(=O)c1ccccc1)C(=O)OC (centres unmarked)	11.3
CC(Sc1nc2c(N)ncnc2n1CCOc1ccccc1)C(=O)O (centres unmarked)	19.1
COCCNC(=O)c1nn2c(C(F)(F)F)cc(-c3ccccc3)nc2c1Cl	10.2
CC(NC(=O)Nc1ccccc1)C(c1ccccc1)N1CCOCC1 (centres unmarked)	22.8
O=C(Nc1ccccc1)c1ccccc1OCc1ccc(S(=O)(=O)N2CCOCC2)cc1	24.2
CCOC(=O)N1CCC(NC(=O)c2cc(C(=O)NCc3ccc(F)cc3)ccc2CO)CC1	-0.533
CCN(CC)S(=O)(=O)c1ccc(OC)c(NC(=O)CSc2cc(Cl)ccc2Cl)c1	-2.76
Cc1ccc(NC(=S)N2CCC(N(C)CC3CCCO3)CC2)cc1C (centres unmarked)	-6.3
Cc1cc2cc(CNC(=S)NCc3ccccc3)ccc2n1C	28.4
Brc1cccc2sc(N3CCCC3)nc12	-3.23
CN(C)C(=O)c1cc(C(=O)c2ccc(F)cc2C(F)(F)F)c[nH]1	7.24

SMILES	hERG current change (%, negative = inhibition) at 10uM [%]
COc1ccc(CC(=O)Nc2ccc(-c3cn4ccccc4n3)cc2)cc1	-7.85
O=C(c1ccco1)C12CN3CN(CN(C3)C1)C2	3.62
Nc1nonc1-n1nnc(C(=O)N/N=C/c2cc(Br)cs2)c1-c1ccccc1	20.8
O=C(CCn1cnc2ccccc2c1=O)Nc1ccc2c(c1)OCCO2	15.1
Cc1ccc(-c2ccc(CCC(=O)O)n2NC(N)=S)cc1	-1.9
O=C(O)Cc1ccc2ocnc2c1	12
O=c1c2cc(F)ccc2sn1-c1ccc(F)cc1	12
COc1ccc(S(=O)(=O)N2CCCCCC2)cc1N	-11.5
Cc1ccc(Cc2cc(-c3ccc(C)cc3)n[nH]c2=O)cc1	8.58
O=C1C2CCCCN2C(=O)N1CCCCN1CCN(c2ccc([N+](=O)[O-])cc2)CC1 (centres unmarked)	-75.8
CCn1c(CNc2ccccc2Cl)nnc1SCCN1CCCCC1	-36.6
COC(=O)c1cccc(NC(=O)c2ccco2)c1	4.02
O=C(Nc1ccccc1)C(=O)Nc1ccccn1	3.99
COCCCn1c(=O)c2sccc2n2c(CCCC(=O)NCc3ccccc3OC)nnc12	-19.9
COc1ccc(Cl)cc1C(=O)NCC#N	12.1
COc1ccc(NC(=O)COc2cccc(C(F)(F)F)c2)cn1	6.7
Cc1cc(N)n(Cc2cccs2)n1	-2.95
CCOC(=O)c1sc(NC(=O)C2CC2)nc1C	-1.21
CCOC(=O)c1ccc(NC(=O)Nc2ccccn2)cc1	17.3
COc1ccc(OC)c(NC(=O)c2nnn(CCc3ccccc3)c2N)c1	7.83
O=C(N/N=C/c1ccccn1)c1ccc(Br)o1	0.268
COC(=O)CCC(=O)c1oc2ccc(Cl)cc2c1NC(=O)CCCN1C(=O)c2ccccc2C1=O	1.89
CC(=O)Nc1ccc(S(=O)(=O)NCCc2c[nH]c3ccc(C)cc23)cc1	26.2

SMILES	hERG current change (%, negative = inhibition) at 10uM [%]
O=c1c2cnn(-c3ccc(F)cc3)c2ncn1Cc1cccnc1	-1.94
CCc1nnc(/N=C/c2c(O)n(-c3ccc(Cl)cn3)c(=O)c3ccccc23)s1	-7.69
O=C(NC1CCN(S(=O)(=O)c2ccc(F)cc2)CC1)c1ccccc1	7.65
O=C(CSc1ncccn1)Nc1ccc(S(=O)(=O)N2CCCCC2)cc1	-12.9
COc1cccc2c(SCC(=O)N/N=C/c3ccc(O)c(O)c3)cc(C)nc12	18.3
COc1ccc(C(=O)OCn2nnc3ccccc3c2=O)cc1OC	8.71
Nc1nnc(SCC(=O)NC2CCCCC2)s1	7.32
COc1cccc(Cn2cnc3c(NS(=O)(=O)c4ccc(Cl)cc4Cl)c(C)c(C)cc32)c1	5.02
CCC(=O)Nc1c(C(=O)N2CCN(c3ccccn3)CC2)cnn1-c1ccc(Cl)cc1	-17.3
CCCC(=O)Nc1ccc(C(=O)NCc2ccccn2)cc1	14.2
CC(C)OCCCNC(=O)c1ccc(N(C)S(C)(=O)=O)cc1	13.3
COc1ccc(N2C(=O)C(CN3CCCCC3)C2c2ccccc2)cc1 (centres unmarked)	-12
COc1ccccc1-c1noc(CCCC(=O)NC2CCCCC2)n1	3.66
COc1ccccc1CN1CC(C(=O)NCc2cccc(C)n2)CCC1=O (centres unmarked)	14
Cc1ccc(C(=O)OCC(=O)c2c(N)n(C)c(=O)n(C)c2=O)cc1S(=O)(=O)N1CCCCC1	-21.7
Cc1cc2cc(CN(CC3CCCO3)C(=S)NCc3ccco3)c(=O)[nH]c2cc1C (centres unmarked)	-9.05
CC(CC(=O)O)Nc1ccccc1O (centres unmarked)	9.04
CC(Sc1nnc(Cn2c(=O)sc3ccccc32)n1C)c1ccccc1 (centres unmarked)	-23.9
O=C(Cn1ncc(Cl)c(Cl)c1=O)Nc1ccc2c(c1)OCO2	0.75
O=c1[nH][nH]c(-c2ccccc2O)c1C(C[N+](=O)[O-])c1ccccc1 (centres unmarked)	20.9
O=C(CN1CCN(S(=O)(=O)c2ccc(Br)s2)CC1)N1CCCCC1	-23.3
CC(=O)Nc1ccc(S(=O)(=O)N(C)CC(=O)N/N=C/c2ccncc2)cc1	22.3
Cc1ccc2nc(SC(C)C(=O)NCc3ccc4c(c3)OCO4)[nH]c2c1 (centres unmarked)	-7.47

— article PMC4336329 (PLoS ONE, 2015)
